According to a collection of fitness landscapes (doi:10.1016/j.celrep.2020.107928):
Whole data set: some 81,000 sequences, median “one-hybrid fitness for binding NBS DNA” near -0.1, cut for the highest 2% near 0.36. The list shows a part of the results.

B1: Caulobacter ParB omega fusion; a variant is named by its letters at X, in order, B8GW30 (parent)
chain: MESVVVGEPGMSEGRRGLGRGLSALLGEVDAAPAQAPGEQLGGSREAPIEILQRNPDQPRRTFREEDLEDLSNSIREKGVLQPILVRPSPDTAGEYQIVAGERAWRAAQRAGLKTVPIMVRELDDLAVLEIGIIENVQRADLNVLEEALSYKVLMEKFERTQENIAQTIGKSXSHVANXMRLLXLPDEVQSYLVSGELTAXHARAIAAAADPVALAKQIIEGGLSVRETEALARKAPNLSAGKSKGGRPPRVKDTDTQALESDLSSVLGLDVSIDHRGSTGTLTITYATLEQLDDLCNRLTRGI

Variants of: B1
Test: one-hybrid fitness for binding NBS DNA (the Noc-binding site; scaled: cognate 1, non-cognate 0); higher = stronger binding
Conditions: with NBS DNA site
How it was run: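 Bacterial one-hybrid selection in E. coli USO rpoZ- hisB- pyrF- with a HIS3 reporter carrying the site 19 bp from the promoter, screening Caulobacter ParB libraries with four specificity codons randomised (NNS). Cells grew 48 hours at 37°C on M9-minus-histidine plus 0.1 mM IPTG and 5 mM 3-AT. Plasmids before and after selection were Illumina-sequenced, three replicate libraries pooled, and variants under 10 reads dropped. Fitness is the log change in variant-to-wild-type read ratio, rescaled to cognate 1, non-cognate 0.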

one-hybrid fitness for binding NBS DNA, 0.482:
QQAT

one-hybrid fitness for binding NBS DNA, 0.416:
RAQS

one-hybrid fitness for binding NBS DNA, 0.786:
QTSR

one-hybrid fitness for binding NBS DNA, 0.608:
QIRT

one-hybrid fitness for binding NBS DNA, ≤ 0.2:
QDGM
IGTI
GIMG
MFKL
LQTW
PNNF
QQCE
TWPL
SDKG
VTRT
NIRR
NEVG
PCPV
HSGG
KFQR
DTRG
QSMA
PTHS
RPSI
ASQG
WTAL
RCML
LDKC
NDSV
QNPD
THVY
QHHK
SQHV
TAAT
TRLV
RVIG
EAFS
AVTK
MACE
WRFS
FFVR
SQML
KLGV
NARG
HATA
VNSV
MTMC
ADQG
KGRG
ILCT
RIYD
YELC
NCSI
RVRP
LTTN
APMS
HVAN
IDNS
THRF
ATQD
QGLI
HQSG
HCMG
QMNN
RTTN
IGPI
KPCN
VGKA
QCGE
LLCC
AFIS
LSVF
DYLF
NYLA
GWPR
YDVG
DHLC
KACM
GTYS
TETN
DQQE
WHSE
QMAN
CDRP
LASF
HGEK
DFNV
AARQ
LNRE
EAPV
QAYL
AGNI
NHMS
HDMA
YKET
VLWY
HYRF
LKQN
TTAR
LNGE
QADV
KQHF
PSML
RHCN
HLYL
RWNK
RFPD
CEMW
ESIR
ANIL
RWCK
TPIN
QFQS
VYLG
CKQG
QFRN
RCGP
TQGE
YADS
ALET
QINV
PDQF
GAYW
VPIL
KPDL
HAFV
TNFG
IMIR
GFPG
DNVT
HFQF
KRHL
REKL
PCYY
TVDH
TMEL
LAFT
NNRY
RGED
LYFI
SFMV
RPVD
PSTR
FYMR
FEGS
ARTL
ELET
AHEV
LVTG
RLWG
RHML
PNMT
WGRR
CPRW
LTET
GYVG
TLKE
RAEA
NMGS
MVRP
KNTP
VETE
FPSR
GDAW
KLFY
NARQ
VAQC
RGHL
QQGW
HWAR
DNHL
QIYM
LVRA
PELT
TPGK
HQSE
RADE
LCLT
LVVR
IIMW
LVID
HEMR
SILC
RFVH
PDPN
PPCP
RSDY
SHNT
CHPR
HSGP
GPWS

one-hybrid fitness for binding NBS DNA, 0.222:
QTNE

one-hybrid fitness for binding NBS DNA, 0.419:
QHNS

one-hybrid fitness for binding NBS DNA, 0.468:
QRDS

one-hybrid fitness for binding NBS DNA, 0.388:
QRSV

one-hybrid fitness for binding NBS DNA, 0.395:
QAST
